Measured values as given in article PMC4336329 (PLoS ONE, 2015).
Out of some 310,000 compounds screened, about 14,000 (4.5%) showed an effect of 50% or more. The effect is printed as a negative number. The list shows a part of the results.

biological target: human ether-à-go-go-related gene (hERG) potassium channel (human, UniProt Q12809); assay: primary screen, population patch clamp on CHO cells stably expressing hERG
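Also: peak tail current of the secondary pulse compared with the same well before compound.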

Chain of human ether-à-go-go-related gene (hERG) potassium channel (Q12809 whole entry, looked up): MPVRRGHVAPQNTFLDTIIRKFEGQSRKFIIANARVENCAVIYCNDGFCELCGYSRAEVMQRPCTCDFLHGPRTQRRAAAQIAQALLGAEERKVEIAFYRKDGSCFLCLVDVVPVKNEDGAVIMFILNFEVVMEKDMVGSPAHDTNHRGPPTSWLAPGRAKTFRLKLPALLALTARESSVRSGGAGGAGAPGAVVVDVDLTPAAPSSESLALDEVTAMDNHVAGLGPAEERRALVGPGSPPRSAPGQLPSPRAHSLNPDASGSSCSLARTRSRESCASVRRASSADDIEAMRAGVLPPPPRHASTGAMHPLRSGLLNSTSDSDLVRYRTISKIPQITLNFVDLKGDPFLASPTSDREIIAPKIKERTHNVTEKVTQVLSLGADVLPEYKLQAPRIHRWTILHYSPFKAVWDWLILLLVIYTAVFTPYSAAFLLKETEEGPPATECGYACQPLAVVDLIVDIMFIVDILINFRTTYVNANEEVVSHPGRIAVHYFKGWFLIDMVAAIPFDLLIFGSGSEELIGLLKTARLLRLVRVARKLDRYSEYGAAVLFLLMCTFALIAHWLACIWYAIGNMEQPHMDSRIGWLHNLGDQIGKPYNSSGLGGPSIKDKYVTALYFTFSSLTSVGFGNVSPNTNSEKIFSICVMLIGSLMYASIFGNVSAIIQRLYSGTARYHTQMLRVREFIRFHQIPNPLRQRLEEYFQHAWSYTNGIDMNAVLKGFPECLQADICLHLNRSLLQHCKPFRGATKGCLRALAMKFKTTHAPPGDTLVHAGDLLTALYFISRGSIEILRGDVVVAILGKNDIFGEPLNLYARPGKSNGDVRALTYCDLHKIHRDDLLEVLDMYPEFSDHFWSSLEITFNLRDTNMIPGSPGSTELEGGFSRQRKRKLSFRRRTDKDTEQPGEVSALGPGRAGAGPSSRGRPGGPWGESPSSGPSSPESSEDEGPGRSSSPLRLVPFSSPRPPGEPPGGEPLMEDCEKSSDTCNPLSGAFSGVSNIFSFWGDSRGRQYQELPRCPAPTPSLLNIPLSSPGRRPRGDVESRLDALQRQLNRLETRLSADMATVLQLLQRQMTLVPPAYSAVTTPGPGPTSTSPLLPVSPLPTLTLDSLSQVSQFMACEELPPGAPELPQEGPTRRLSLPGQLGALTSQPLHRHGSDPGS

Row | SMILES | hERG current change (%, negative = inhibition) at 10uM
1 | C=CCn1c(=O)/c(=C/c2ccc(O)cc2)s/c1=C(/C#N)c1nnc2n1CCCCC2 | -16.6%
2 | COc1cccc(S(=O)(=O)Nc2ccc3c(c2)OCCO3)c1 | -6.43%
3 | O=C(c1ccco1)N1CCN(C(=O)C23CC4CC(CC(C4)C2)C3)CC1 | 3.07%
4 | Cn1c(SCC(=O)NNC(=O)Cc2ccccc2)nnc1-c1ccc(Cl)cc1 | -7.07%
5 | Cc1cc(OCC(=O)OCC(=O)N2CCc3ccccc3C2)ccc1Cl | 15.1%
6 | CCN(CC)C(=O)CN1CCN(c2ccccc2F)CC1.Cl | 12.5%
7 | Cc1ccc(S(=O)(=O)N(C)C)cc1NC(=O)COC(=O)/C=C/c1ccc2ccccc2n1 | 3.51%
8 | COc1ccc(N(CC(=O)NCCc2cccc(C)c2)S(=O)(=O)c2c(C)noc2C)cc1 | 11.5%
9 | O=C(NNC(=O)c1cc(Cl)nc2ccccc12)c1ccccc1F | 16.6%
10 | CCNC(=S)N(Cc1cc2cc(C)cc(C)c2[nH]c1=O)C1CCCC1 | -7.52%
11 | C#CCN(C)Cc1ccccc1.Cl | 0.852%
12 | CCCCN(CC)CCCNC(=O)c1ccc(CS(=O)(=O)c2c(Cl)cccc2Cl)o1 | -55.4%
13 | Cc1ccccc1Cn1cc(NC(=O)c2cc3nc(-c4ccco4)cc(C(F)(F)F)n3n2)cn1 | 7.92%
14 | N=c1c(C(=O)NC2CCCC2)cc2c(=O)n3ccccc3nc2n1C1CCCCC1 | -79%
15 | Cc1ccc(S(=O)(=O)NC(C(=O)Oc2ccc3c(C)c(Cl)c(=O)oc3c2)c2ccccc2)cc1 (stereo not shown) | 8.6%
16 | Cc1nn(-c2ccccc2)c(C)c1/C=N/NC(=O)c1ccc(F)cc1 | -2.21%
17 | O/N=C/c1ccnc(SCc2ccccc2)n1 | -12.1%
18 | COc1ccc(N2C(=O)c3ccccc3C2=O)cc1 | 4.96%
19 | CC(C)Oc1nc(-c2ccc(Cl)cc2)nc2ccccc12 | 15.4%
20 | Cc1ccc(NCc2ccc(O)c3ncccc23)cc1 | 21.1%
21 | CCOc1ccc(NC(=O)CNc2ccc(C)cc2Cl)cc1 | 7.33%
22 | O=C(CSc1nc2ccccc2nc1N1CCCC1)Nc1ccc(F)cc1 | 11.1%

Row | SMILES | hERG current change (%, negative = inhibition) at 10uM
23 | Cc1ccccc1NC(=O)COc1ccccc1C | 13.8%
24 | CCc1nc(SCC(=O)Nc2cc(C)on2)n[nH]1 | -1.95%
25 | O=C(Cn1cc(C(F)(F)F)ccc1=O)Nc1ccccc1 | 17.2%
26 | CCNC(=O)C(=O)Nc1ccc2c(c1)N(S(=O)(=O)c1cccs1)CCC2 | -0.863%
27 | O=S(=O)(NCC(Nc1ccc(Cl)cc1)c1ccccc1)c1ccc(Cl)cc1 (stereo not shown) | 7%
28 | COC(=O)C1=C(N)c2c(F)cccc2C1(C#N)c1ccccc1 (stereo not shown) | -9.3%
29 | CCCCCCP(=O)(O)c1ccccc1 | 2%
30 | O=C(NC1CCCCC1)C1CCC(CNS(=O)(=O)c2cccc3nsnc23)CC1 (stereo not shown) | 10%
31 | CCOC(=O)c1ccc(N=Cc2nc(-c3ccccc3)oc2OC(C)=O)cc1 | 11.2%
32 | COc1cc2c(cc1NC(=O)CN1CCN(S(=O)(=O)c3ccc(C)cc3)CC1)oc1ccccc12 | 3.91%
33 | COc1ccc(N(CC(=O)Nc2ccc3c(c2)OCO3)S(=O)(=O)c2c(C)nn(C)c2C)cc1 | 11.6%
34 | CCCCCOC(=O)Cn1c(=O)c2c(nc(N3CCOCC3)n2C)n(C)c1=O | -45.3%
35 | Cc1c(C(=O)Nc2ccc(S(=O)(=O)Nc3ncccn3)cc2)oc2ccccc12 | 7.14%
36 | Cc1ccc(S(=O)(=O)N2CCOCC2)cc1C(=O)Nc1ccccc1N1CCCC1 | -24.1%
37 | CC(C(=O)Nc1ccc(S(=O)(=O)N2CCCC2)cc1)N1CCN(C(=O)c2ccco2)CC1 (stereo not shown) | -7%
38 | Cc1ccc(-c2nn(C)c(=O)c3ccccc23)cc1S(=O)(=O)N1CCOCC1 | -36.8%
39 | O=S1(=O)NC(=NCCOCCO)c2ccccc21 | 9.3%
40 | COc1ccc(OCC(O)COc2ccc(C(=O)O)cc2)cc1 (stereo not shown) | 12.8%
41 | COc1ccc(Cc2nnc(SCC(=O)N3CCN(c4ccccc4)CC3)o2)cc1 | 1.95%
42 | Cc1noc(C)c1CSc1nnc(-c2ccccc2F)n1CCc1ccccc1 | -45.1%
43 | COC(=O)C1CCN(C(=O)NC2CCCCC2)CC1 | 8.96%
44 | COc1ccc(C2C(C(=O)NCc3cccnc3)c3cc(OC)c(OC)cc3C(=O)N2C)cc1 (stereo not shown) | 14.9%

Row | SMILES | hERG current change (%, negative = inhibition) at 10uM
45 | CCCCNC(=O)c1ccc(CNS(=O)(=O)c2ccc(Br)cc2)cc1 | 2%
46 | CC1Cn2c(nnc2-c2ccc(F)cc2)S1 (stereo not shown) | -13.8%
47 | COc1cccc(NC(=O)c2ccc(NC(C)=O)cc2)c1 | 9.01%
48 | Cc1c(/C=N/NC(N)=O)c2ccccn2c1C(=O)c1ccncc1.Cl | -54.9%
49 | CCCCNC(=O)c1cn(CC)c2ccc(S(=O)(=O)N3CCCCCC3)cc2c1=O | 7.01%
50 | CCOCCCNS(=O)(=O)c1ccc(NC(=O)N2c3ccccc3Sc3ccccc32)cc1 | 3.13%
51 | COc1ccc(C(C(=O)NC2CCCC2)N(C(=O)c2ccco2)c2ccccc2OC)cc1 (stereo not shown) | -12.4%
52 | Cc1ccc(/C=C2\CCOC2=O)cc1 | 1.95%
53 | COCCCNC(=O)c1c(NC(=O)C2COc3ccccc3O2)sc2c1CCCC2 (stereo not shown) | 15.2%
54 | CCSc1nc2ccccc2n1CC(N)=O | 8.19%
55 | O=C(c1cnn2c(C(F)(F)F)cc(-c3ccccc3)nc12)N1CCCc2ccccc21 | 8.7%
56 | CCOc1ccc(NC(=O)Cn2nnc(C(=O)NCc3cccs3)c2N)cc1 | 13.8%
57 | O=C(CN1C(=O)NC2(CCCCCC2)C1=O)N1CCN(c2ccc(F)cc2)CC1 | -44.7%
58 | Cc1cc(NC(=O)C2CCCN(S(=O)(=O)c3c(C)noc3C)C2)n[nH]1 (stereo not shown) | -16.1%
59 | CCN=C1S/C(=C/c2ccc(-c3ccc(Cl)cc3C(=O)O)o2)C(=O)N1CC | 25.3%
60 | CN(C(=O)c1cc(-n2cnnc2)ccc1Cl)c1ccccc1 | 8.56%
61 | CCN(CC)CCCNC(=O)CC1Oc2ccc(C)cc2NC1=O (stereo not shown) | 0.515%
62 | CCOc1ccc(CN2CCN(Cc3ccc(C)o3)CC2CCO)cc1 (stereo not shown) | -104%
63 | CC(C)(C)c1cc[n+](CC(=O)Nc2cc(C(F)(F)F)ccc2N2CCOCC2)cc1.[Cl-] | 0.427%
64 | COCCN(CCOC)S(=O)(=O)c1ccc(C(=O)Nc2sc3c(c2C(N)=O)CCCCC3)cc1 | 18.7%
65 | CC(C)(C)C(=O)Nc1nnc(-c2ccncc2)o1 | 18.7%
66 | CCN(CC(=O)NCc1cccs1)C(=O)/C=C/c1ccc(Cl)c(Cl)c1 | -41.1%

Row | SMILES | hERG current change (%, negative = inhibition) at 10uM
67 | COC(=O)c1[nH]c2c(c1C(=O)OC)CCc1ccccc1-2 | 4.35%
68 | Cc1ccc(NC(=O)CCc2ccc(C)o2)c(Br)c1 | 5.35%
69 | CCC(C)(C)NC(=O)c1ccc2c(c1)N(CC(=O)N1CCCC1)C(=O)C(C)(C)O2 | 11.1%
70 | O=C(NCc1cc([N+](=O)[O-])ccc1O)c1cccnc1Sc1ccccc1 | -21.6%
71 | COc1ccccc1N1CCN(/N=C/c2ccc(C(=O)O)cc2)CC1 | 16.3%
72 | CCCSc1nnc2n(N)c(=O)c3ccccc3n12 | -8.29%
73 | COc1ccc(C(=O)c2cc([N+](=O)[O-])ccc2N2CCOCC2)cc1 | -23.5%
74 | N#Cc1ccc(NC(=O)Nc2ccc(Oc3ccc(NC(=O)Nc4ccc(C#N)cc4)cc3)cc2)cc1 | 11.4%
75 | Cc1cccc(OCC(=O)N/N=C/c2cccn2C)c1 | -2.24%
76 | O=C(c1ccccc1F)N(Cc1cccnc1)Cc1cc2cc3c(cc2[nH]c1=O)OCCO3 | 4.98%
77 | Cc1c(C2Nc3ccccc3NC3=C2C(=O)CC(C)(C)C3)cnn1C (stereo not shown) | 15.6%
78 | C=CC(=O)Oc1ccc(N2Cc3ccccc3C2=O)cc1 | 19.1%
79 | Cc1c(N=NC2=C(O)CC(C)(C)CC2=O)c(=O)n(-c2ccccc2)n1C | -3.39%
80 | CCn1ccnc1CN1CCCC(CO)(Cc2cccc(OC)c2)C1 (stereo not shown) | -17.7%
81 | COc1ccc(NC2=C(C(C)=O)C(c3ccc(OC)c(OC)c3)C(C(C)=O)C(C)(O)C2)cc1 (stereo not shown) | 4.14%
82 | CCCCN(C(=S)Nc1ccccc1)C1CCS(=O)(=O)C1 (stereo not shown) | -0.981%
83 | CCCCCC(=O)N1CCN(c2ccc(C(C)=O)cc2F)CC1 | -60.9%
84 | CC(C)Oc1ccc(C(CC(=O)O)NC(=O)c2cccs2)cc1 (stereo not shown) | -2.74%
85 | CCOC(=O)c1ccc(NC(=O)c2nc[nH]c2C(=O)N[C@@H](CC(C)C)C(=O)OCc2ccccc2)cc1 | -2.77%
86 | O=CNCc1nc2ccccc2n1CCc1ccccc1 | 10%
87 | COc1ccc(OC)c(NC(=O)CN(Cc2ccccc2)S(C)(=O)=O)c1 | 25.9%
88 | COc1ccc(NC(=S)c2ccc(N(C)C)cc2)cc1 | -2.75%
